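Exposure lasted 48 hours, with cells grown in 96-well plates and compounds tested at five concentrations. Here, GI50 denotes the concentration required for 50% inhibition of growth.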 The source made the active and inactive calls. Rule as the data show it: active = GI50 up to about 1.1 µM and inactive = higher. Square brackets hold non-standard residues; d marks the D form. Peptide text beside a SMILES is read from it. * marks the point of attachment. ξ: configuration not given here. NMeF = CN[C@@H](Cc1ccccc1)C(=O)O; NMeV = CN[C@H](C(=O)O)C(C)C; ξNMeV = CNC(C(=O)O)C(C)C; Boc = CC(C)(C)OC(=O)*; OBn = c1ccc(CO*)cc1
What follows are molecules tested on NCI-H322M (assay: NCI anticancer screen, dose series, 48 h).

SMILES | GI50
CN1C(=O)c2ccccc2NC(=O)c2cnn(C)c21 | inactive: > 100 µM
O=C(O)CCC1(CCC(=O)O)CCCCCCCCC(CCC(=O)O)(CCC(=O)O)C(=O)C1=O | inactive: > 100 µM
O=c1[nH]n(Cc2ccccc2CCl)c2ccc([N+](=O)[O-])cc12 | inactive: 43.7 µM
CC(C)=CCC/C(C)=C/CC/C(C)=C/CC/C(C)=C/C=C/C=C(\C)CC/C=C(\C)CC/C=C(\C)CCC=C(C)C | inactive: > 100 µM
c1ccc(CSCCC(SCc2ccccc2)SCc2ccccc2)cc1 | inactive: > 10 µM
C=CC(=O)N1C/C(=C\c2ccc(N(C)C)cc2)C(=O)/C(=C/c2ccc(N(C)C)cc2)C1 | inactive: 98.4 µM
O=C1CCC(c2ccccc2)(c2ccccc2)CC1 | inactive: 71.1 µM
CCN(CC)CCCOc1cc2c(cc1OC)C(=O)N1CCC[C@H]1C=N2 | inactive: > 100 µM
C/C(=C\CSCC(N)C(=O)O)CC/C=C(\C)CNc1ccccc1 (stereo not drawn) | inactive: 56.6 µM
NC(CSCc1ccccc1)C(=O)O (stereo not drawn) | inactive: > 100 µM
CCCCCCCCCCCC(=O)NCc1ccc(OC(=O)CCCCCCCCCCC)c(OC)c1 | inactive: > 43.3 µM
Nc1c2c(nc3cc(F)c(F)cc13)CCC2 | inactive: 44.3 µM
COc1ccc(C2=CC(c3ccc4c(c3)OCO4)c3c(c4ccccc4oc3=O)O2)cc1OC (stereo not drawn) | inactive: 3.36 µM
N#C/C(C(=S)Nc1ccccc1)=C(/N)N1CCCC1 | inactive: > 100 µM
CC(=O)O[C@@H]1CN(S(=O)(=O)c2ccc(C)cc2)C[C@@H]1C1CCCCC1 | inactive: 35.8 µM
O=C(c1ccccc1)C1CCCCN1C(=O)c1ccccc1 (stereo not drawn) | inactive: > 100 µM
CCOC(=O)C#Cc1ccc(C#CC(=O)OCC)cc1 | inactive: 5.09 µM
CCOC(=O)C(CNc1ccc(O)cc1)NC(=O)c1ccccc1 (stereo not drawn) | inactive: > 100 µM
O=S1(=O)OCCOS(=O)(=O)C1Cc1cccc2ccccc12 | inactive: 19.7 µM
Cc1ccc2nc(-c3ccccc3)cc(=O)n2c1 | inactive: > 100 µM
Sc1ncnc2nc[nH]c12 [MERCAPTOPURINE ANHYDROUS] | inactive: 9.46 µM
C=CCCC1(O)C(O)C(CO)O[C@H](O[C@@]2(CO)OC(CO)C(O)C2O)C1O (stereo partly drawn) | inactive: > 100 µM

SMILES | GI50
N#Cc1c(O)c2ccccc2[nH]c1=O | inactive: > 100 µM
CCOc1ccccc1NC(=O)CCC(=O)NN | inactive: > 100 µM
N#CC(C#N)=C(N)/C(C#N)=C/c1ccc(O)c(O)c1 | inactive: > 100 µM
COc1ccc2c(c1)OCC1=C2Oc2ccccc2C1 | inactive: 69.8 µM
COc1ccc2c(c1)C(CCN)C(=O)N2 (stereo not drawn) | inactive: > 100 µM
NNC(=O)C(=O)N/N=C(\CCCC(=O)Nc1ccc(Cl)cc1)CC(=O)c1ccc(F)cc1 | inactive: > 100 µM
Fc1ccc2c(c1)cc1ccc3cccc4ccc2c1c34 | inactive: > 100 µM
CC1=CC(O)C(C(O)(C(F)(F)F)C(F)(F)F)C(C)(C)C1 (stereo not drawn) | inactive: > 10 µM
Cc1c2cnccc2c(C)c2c1c1ccccc1n2CC1CO1 (stereo not drawn) | inactive: 1.54 µM
CCOC(=O)C1(C)CCCCC(=O)N1 (stereo not drawn) | inactive: > 100 µM
COc1ccc2c(c1OC)C1=C(C2=O)c2cc3c(cc2CCN1)OCO3 | inactive: 55.5 µM
c1ccc(C(c2ccccc2)c2ccccn2)cc1 | inactive: 73.6 µM
O=[N+]([O-])c1ccc2nc(/C(=N\Nc3ccccc3)C(O)c3ccc4c(c3)OCO4)c(O)nc2c1 (stereo not drawn) | inactive: 72.8 µM
CCCCCCN(N)C(=O)CC#N | inactive: > 100 µM
CC1(C)OC(=O)C(C#N)=C1/C=C/c1coc2ccc(Cl)cc2c1=O | inactive: 71.4 µM
C=C1CN(C(=O)c2cc3cc(OC)c(OC)c(OC)c3[nH]2)c2cc([N+](=O)[O-])ccc21 | inactive: > 100 µM
COc1cc([C@@H]2c3[nH]c4ccccc4c3C(Nc3ccc([N+](=O)[O-])cc3)[C@H]3COC(=O)N23)cc(OC)c1O (stereo partly drawn) | active: 1.1 µM
C=C(C)C(=O)O[C@H]1CC2=C[C@@H](C[C@@]3(C)O[C@@H]3[C@H]3OC(=O)C(=C)[C@@H]31)OC2=O [ELEPHANTOPIN] | inactive: 1.91 µM
O=C1c2ccccc2-c2nnc3c(c21)Cc1ccccc1C3 | inactive: > 10 µM
CC1OC(OC2C(OC(=O)[C@@H]3CC(C)(C)C[C@@H]4C5=CC[C@@H]6[C@@]7(C)C[C@H](O)[C@H](OC8OC(CO)C(O)C(O)C8O)[C@@](C)(CO)C7[C@H](O)C[C@@]6(C)[C@]5(C)C[C@@H](O)[C@H]43)OCC(O)C2O)C(O)C(O)C1O (stereo partly drawn) | inactive: > 15 µM
Nc1nc(N)c(N=Nc2ccc([As](=O)(O)O)c(O)c2)c(N)n1 | inactive: > 78.3 µM
COc1ccc(-c2cc(=O)c3c(OC)cccc3o2)c(OC)c1OC | inactive: > 100 µM

SMILES | GI50
COC(=O)[C@H](CCSC)NC(=O)c1ccc(CNC(=O)/C=C/c2cccc(Oc3ccccc3)c2)cc1 | inactive: 38.2 µM
CCC1(COC(NC(=O)c2ccccc2)(C(F)(F)F)C(F)(F)F)COC1 | inactive: > 100 µM
CC(=O)C1CC=C(C)CC1 (stereo not drawn) | inactive: > 100 µM
C/C1=C/C[C@@H](/C(C)=C/c2csc(C)n2)OC(=O)C[C@H](O)C(C)(C)C(=O)[C@H](C)[C@@H](O)[C@@H](C)CCC1 [EPOTHILONE D] | active: < 0.0001 µM
COC(=O)c1cc(C(=CCC[C@H]2CC[C@@]3(C)C(CCC4C3CC[C@@]3(C)C4CC[C@@H]3C(C)CCCC(C)C)C2)c2cc(Cl)c(O)c(C(=O)OC)c2)cc(Cl)c1O (stereo partly drawn) | inactive: > 10 µM
COc1c(-c2nc3ccc(N4CCN(C)CC4)cc3[nH]2)cc(OC)c2[nH]c(CO)nc12 | inactive: 95.5 µM
CCOC(=O)C1=C(Nc2cccc(OC)c2)OCC1=O | inactive: > 100 µM
COc1ccc(-c2c(C#N)c(-c3ccc(C)cc3)n(NS(=O)(=O)c3ccc(C)cc3)c(=O)c2C#N)cc1 | inactive: 93.8 µM
O=C1C[C@@H](Sc2ccccc2)C2(OCCO2)[C@H]2ON3CCC[C@@H]3[C@@H]12 | active: 0.21 µM
CS(=O)(=O)N(CCC#N)c1ccc(C=O)cc1 | inactive: > 100 µM
Clc1ccc(C(c2ccccc2Cl)C(Cl)Cl)cc1 (stereo not drawn) [MITOTANE] | inactive: 20.2 µM
CN(C)c1ccc(/C=N/CC2CCCN3CCCCC23)cc1 (stereo not drawn) | inactive: > 100 µM
N#Cc1ccc(Nc2cnc3cc(N)ccc3n2)cc1 | inactive: 73.5 µM
Cn1c(-c2ccccc2)cc(-c2ccc3c(c2)OCO3)c1-c1cccs1 | inactive: > 100 µM
O=C(C/C(=N/O)C(=O)NC1=C(Cl)C(=O)c2ccccc2C1=O)CC(c1ccccc1)c1c(O)c2ccccc2oc1=O (stereo not drawn) | inactive: 18.4 µM
COc1ccc(NC(=O)CC(=O)N2N=C(N(CCC#N)c3cccc(C)c3)CC2c2ccccc2)cc1 (stereo not drawn) | inactive: > 100 µM
NC(=S)N/N=C\c1nccc2ccccc12 | active: 0.404 µM
COc1cccc2c(N)c3cccc(C(=O)NCCN(C)C)c3nc12 | active: 0.119 µM
CCN(CC)CCn1c(=O)c2c(C)c3oc4ccccc4oc3c(C)c2c1=O | inactive: > 100 µM
COc1ccccc1CNC1=Nc2ccncc2S(=O)(=O)N1c1ccccc1 | inactive: > 100 µM
COc1cccc([C@@]2(O)c3c(ccc(O)c3OC)[C@H]2OC)c1OC | inactive: 41.1 µM
O=C1Nc2ccccc2C(=O)/C1=C/NC(=S)NCCc1ccccc1 | inactive: > 100 µM

SMILES | GI50
N#Cc1c(-c2ccc(Cl)cc2)cc(-c2ccc(Nc3ccnc4cc(C(F)(F)F)ccc34)cc2)nc1N | inactive: 20.7 µM
CC(C)(C)NCC(COc1ccc([N+](=O)[O-])cc1)OP(c1ccccc1)c1ccccc1 (stereo not drawn) | inactive: 56.6 µM
CN(C)C1(N(C)C)Oc2c(c(=O)n(C)c(=O)n2C)C(c2ccccc2Br)C1(F)F (stereo not drawn) | inactive: > 100 µM
CCCCCNC(=O)c1cc2cc(CCl)ccc2oc1=O | inactive: 2.65 µM
C/C(=C/CC[C@]1(CO)CC[C@]2(C)[C@H](CC[C@@H]3[C@@]4(C)CC[C@H](OC5OC(CO)C(O)C(O)C5OC5OC(CO)C(O)C(O)C5O)C(C)(C)[C@@H]4CC[C@]32C)[C@H]1O)CO (stereo partly drawn) | inactive: > 100 µM
CNC(=O)C(NC(=O)[C@H](CC(C)C)NC(=O)[C@@H](S)CCN1C(=O)N(C)C(C)(C)C1=O)C(C)(C)C (stereo partly drawn) | inactive: > 100 µM
O=C1/C(=C\c2c(-c3ccccc3)[nH]n(-c3ccccc3)c2=O)C(c2ccccc2)=NN1c1ccccc1 | inactive: > 100 µM
CC(=O)Nc1nc(Cl)cc(NCC2(CO)CCC2)n1 | inactive: > 100 µM
C[C@@H](CO)C1=CC(C#C[Si](C)(C)C)N(C(=O)Oc2ccccc2)c2ccccc21 (stereo partly drawn) | inactive: 17.7 µM
Cc1cc(C)c(C(=O)c2no[n+]([O-])c2C(=O)c2c(C)cc(C)c(Br)c2C)c(C)c1Br | inactive: 15.4 µM
O=C1C(Cl)C(c2cccc(Br)c2)N1c1c(O)c(Cl)cc(Br)c1Cl (stereo not drawn) | inactive: 13.2 µM
O=[N+]([O-])c1cc(Cl)ccc1Sc1ccccc1 | inactive: > 100 µM
CCOC(=O)C(=O)Nc1nc2c(s1)C(=O)c1ccccc1C2=O | inactive: 16.6 µM
COc1ccc(C2=CC(C(C)=C(C(N)=O)C(N)=O)C=C(c3ccc(Br)cc3)C2)c(OC)c1 (stereo not drawn) | inactive: > 100 µM
CC(=O)O[C@H]1C#C/C=C\C#CC[C@@H]2C(=O)N[C@@H]12 | inactive: > 100 µM
N#Cc1c(N)c2c(c(-c3ccccc3)c1-c1ccccc1)C(=O)N(NC(=S)Nc1ccccc1)C2=O | inactive: > 100 µM
[N-]=[N+]=NCC1OC(n2cnc3c(N)ncnc32)C2OC12 (stereo not drawn) | inactive: > 100 µM
O=C1OCc2nc3c(c(-c4ccccc4C(F)(F)F)c21)C(=O)OC3 | inactive: > 100 µM
C=CCN1C(=O)N/C(=C\c2ccc(Cl)cc2)C1=O | inactive: > 100 µM
CC(C)C(C(=O)N(C)[C@H](C(=O)N1CCC[C@H]1C(=O)N(C)[C@@H](Cc1ccccc1)C(=O)OCc1ccccc1)C(C)C)N(C)C(=O)[C@@H](NC(=O)OC(C)(C)C)C(C)C (stereo partly drawn) (Boc-V[ξNMeV][NMeV]P[NMeF]-OBn) | inactive: > 31.6 µM
O=C(CN1CCN(c2cccc(Cl)c2)CC1)N1CCc2c([nH]c3ccccc23)C1c1cccnc1 (stereo not drawn) | inactive: 33.3 µM
CCOc1nc(-c2ccccc2)cc(-c2ccc(N3CCOCC3)cc2)c1C#N | inactive: > 100 µM
